Here are results for 34 variants from the RNAGym collection of RNA variant scans (doi:10.1093/nar/gkz1192).

The source gives no read counts; variants with many changes may rest on few reads.

B1: CPEB3 Ribozyme (parent)
chain: UAACAGGGGGCCACAGCAGAAGCGUUCACGUCGCAGCCCCUGUCAGAUUCUGGUGAAUCUGCGAAUUCUGCUGUAUAUCUC

Variants of B1 are the subject of the data set. Kind of data set: self-cleavage, relative activity (ratio to wild type); higher = more cleavage; in vitro, sequencing. An outline of the steps: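 Relative activity compares each variant's cleaved/total read fraction with that of the unmutated ribozyme. To get these fractions, barcoded CPEB3 ribozyme libraries from rounds of error-prone PCR were transcribed with T7 RNA polymerase for 5 hours at 37°C and then given 15 min of DNase I treatment before EDTA was added. The RNAs were reverse transcribed with template switching and sequenced on Illumina, and DNA sequencing linked barcodes to variants. A minimum of 5 reads applied, and three batches were averaged.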
For UAACAGGGGGCCGCAGCAGAAGCGUUCACGUCGCAGCCCCCGUCAGAUUCUGGUGAAUCUGCGAAUUCUGCUGUAUAUCCC [A13G U41C U80C], the self-cleavage worked out at 0.93. With UAACAGGGGGCCGCAGCAGAAGCGUUCACGUCGCAGCCCCCGUCAGAUUCUGGUGAAUCUACGAAUUCUGCUGUAUGUCUC [A13G U41C G61A A77G], the self-cleavage was 0.36.

With UAACAGGGGGCCGCAGCAGAAGCGUUCACGUCGCAGCCCCCGUCUGAUUCUGGUGGAUCUGCGAACUCCGCUGUAUAUAUC [A13G U41C A45U A56G U66C U69C C79A], the self-cleavage is 0.19. As for UAACAGGGGGCCGCAGCAGAAGCGUCCACGUCGCAGCCCCUGUCAGAUUCUGGUGAAUCUGCGGAUUCUGCCGUAUAUCUC [A13G U26C A64G U72C], the figure is 0.04; as for UAACAGGGGGCCGCAGCAGAAGCGUACACGUCGCAGGCCCUGUCAGAUUCUGGUGAAUCUGCGAAUCCUGCUGUAUAUCUC [A13G U26A C37G U67C], 0.38. Take UAACAGGGGGCCGCAGCAGAAGCGUUCACGCCGCAGCCUCUGUCAGAUUCUGGUGAAUCUGCGAAUUCCGCUGUAUAUCUC [A13G U31C C39U U69C]: the self-cleavage is 0.5. The value for UAACAGGGGGCCGCAGCAGAAGCGUUCACGACGCAGCCUCUGUCAGAUUCAGGGGAAUCUGCGAAUCCUGCUGUAUAUCUC [A13G U31A C39U U51A U54G U67C] was 0.07; that for UAACAGGGGGCCGCAGCAGAAGCGUUCACGUCGCAGCCCCAGUCAGAUUCUUGUGAAUCUGCGAAUUCUGCUGUAUACCUC [A13G U41A G52U U78C] was 0.21. In the case of UAACAGGGGGCCGCAGCAGAAGCGUUCACGACGCAGCCCCUGUCAGAUUCUGGUGAACCCGCGAAUUCUGCUGUAUAUCGC [A13G U31A U58C U60C U80G], the self-cleavage worked out at 0.08. The value for UAACAGGGGGCCGCAGCAGAAGCGUACACGUCGCAGCCCCUGUCAGAUUAUGGUGAAUCUGCGAAUUCUGCUGUAUAUCUC [A13G U26A C50A] was 0.49; that for UAACAGGGGGCCGCAGCAGAAGCGUUCACGACGCAGCCCCCGUCAGAUUCUGGUGAAUCUGCGAAUUCUGCUGUAUAUCUC [A13G U31A U41C] was 0.25. For UAACAGGGGGCCGCAGCAGAAGCGUUCACGCCGCAGCCCCUGUCAGAUUCUGGUGAAUCUGCGAAUCCUGCUGUAUAUCUC [A13G U31C U67C], the self-cleavage came to 0.11. The value for UAACAGGGGGCCGCAGCAGAAGCGUUCACGUCGCAGCCCCCGGCUGACUCUGGUGAAUCUGCGAAUUCUGCAGUAUAUCUC [A13G U41C U43G A45U U48C U72A] was 0.13.

On to UAACAGGGGGCCGCAGCAGAAGCGUCCACGUCGCAGCCCCUGUCAGAUCCUGGUGAAUCUGCGAAUUCUGCGGUAUAUCUC [A13G U26C U49C U72G], for which the self-cleavage turned out to be 0.16. UAACAGGGGGCCGCAGCAGAAGCGUUCACGACGCAGCCCCUGUCUGAUUCUGGCGAAUCUGCGAAUUCUGCUGUAUAACUC [A13G U31A A45U U54C U78A]: the self-cleavage stood at 0.12.

With UAACAGGGGGCCGCAGCAGAAGCGUUCACGUCGCAGCCCCCGUCAGAUUCUGGUGAAUCCGCGAAUUCUGCUGCAUACCUC [A13G U41C U60C U74C U78C], the self-cleavage was 0.17. As for UAACAGGGGGCCGCAGCAGAAGCGUCCACGUCGCAGCCCCUGGCAGAUUCUGGUGAAUCUGCGAAUUCUGCUGUAUACCUC [A13G U26C U43G U78C], the figure is 0.84; as for UAACAGGGGGCCGCAGCAGAAGCGUUCACGACGCAGCCCCAGUCAGAUUCCGGUGAGUCUGCGAAUUCUGCUGUUUAACUC [A13G U31A U41A U51C A57G A75U U78A], 0.02.

With UAACAGGGGGCCGCAGCAGAAGCGUCCACGUCGCAACCCCUGCCAGAUUCUGGUGAAUCUGCGAGUUCUGUUGUAUAUCUC [A13G U26C G36A U43C A65G C71U], the self-cleavage turned out to be 0.1.

In the case of UAACAGGGGGCCGCAGCAGAAGCGUUCACGUCGCAGCCCCAGUCAGAUUCUGGUGAACCUGCGGAUUCUGCUGUAUAUCUC [A13G U41A U58C A64G], the self-cleavage was 0.06. In the case of UAACAGGGGGCCGCAGCAGAAGCGUCCACGUCGCAGCCCCUGGCAGAUCCUGGUGAAUCCGCGAAUUCUGCUGUAUAUCUC [A13G U26C U43G U49C U60C], the self-cleavage stood at 0.35. As for UAACAGGGGGCCGCAGCAGAAGCGUCCACGUCGCAGCCCCUGUCAGAUUCUGGUGAAUCUGCGAAAUCUGCUGUAUGUCUC [A13G U26C U66A A77G], the figure is 0.33. Take UAACAGGGGGCCGCAGCAGAAGCGUUCACGUCGCAGCCCCCGUCAGAUUCUGGUGAAUCUGCGAAUUCUGCUGCUUAUCUC [A13G U41C U74C A75U]: the self-cleavage came out at 0.93. The value for UAACAGGGGGCCGCAGCAGAAGCGUUCACGACGCAGCCCCUGCCAGAUUCUGGUGAAUCCGCGAAUUCUGCUGUAUAUCUC [A13G U31A U43C U60C] was 0.13. The value for UAACAGGGGGCCGCAGCAGAAGCGUGCACGUCGCAGCCCCUGUCAGAUUCUGGUGAAUCUGCGAAUUCUGCUGUAUACCUC [A13G U26G U78C] was 0.18. Consider UAACAGGGGGCCGCAGCAGAAGCGUACACGUCGCAGCCCCUGUCAGAUUCUGGUGAAUCUGCGAAUUCUGCUGCAUAUCUC [A13G U26A U74C], for which the self-cleavage stood at 0.59.

In the case of UAACAGGGGGCCGCAGCAGAAGCGUCCACGUCGCAGCCCCUGUCGGAUUCUGGUGAAUCUGCGAAUUCUGCUGUAUAUCUC [A13G U26C A45G], the self-cleavage turned out to be 0.14. With UAACAGGGGGCCGCAGCAGAAGCGUCCACGUCGCAGCCCCUGUCUGAUUCUGGUGAAUCUGCGAAUUCUGCUGUAUAUCUC [A13G U26C A45U], the self-cleavage worked out at 0.38. Consider UAACAGGGGGCCGCAGCAGAAGCGUACACGUCGCAGCCCCUGUCAGAUUCUGGUGAAUCUACGAAUUCUGCUGUAUAUCUC [A13G U26A G61A], for which the self-cleavage was determined as 0.38.

Turning to UAACAGGGGGCCGCAGCAGAAGCGUACACGUCGCAGCCCCUGUCAGAUUCUGGUGAAUCGGCAAAUUCCGCUGUAUAUCUC [A13G U26A U60G G63A U69C], the self-cleavage turned out to be 0.17. As for UAACAGGGGGCCGCAGCAGAAGCGUUCACGUCGCAGCCCCAGUCAGAUUCUGGUGAAUCUGCGAAGUCUGCUGUAUAUCUC [A13G U41A U66G], the figure is 0.27; as for UAACAGGGGGCCGCAGCAGAAGCGUUCACGACGCGGCCCCUGUCAGAUUCUGGUGAAUCUGCGAAUUCUGCUGUAUAUCUC [A13G U31A A35G], 0.95; as for UAACAGGGGGCCGCAGCAGAAGCGUUCACGUCGCAGCCCCAGACAGAUUCUGGUGAAUCUGCGAAUUCUGCUGUAUAUCUC [A13G U41A U43A], 0.26.

Take UAACAGGGGGCCGCAGCAGAAGCGUUCACGCCGCAGCCCCUGUCAGAUUCUGGUGGGUCUGCGAAUUCUGCUGUAUAUCUC [A13G U31C A56G A57G]: the self-cleavage came out at 0.39.
